# According to PMC4336329 (PLoS ONE, 2015):
# Out of some 310,000 compounds screened, about 2,200 (0.71%) showed an effect of 50% or more. The effect is printed as a negative number. This is one part of the list.
# Target: human ether-à-go-go-related gene (hERG) potassium channel (human, UniProt Q12809)
# Assay: primary screen, population patch clamp on CHO cells stably expressing hERG
# human ether-à-go-go-related gene (hERG) potassium channel, sequence (Q12809 whole entry, looked up): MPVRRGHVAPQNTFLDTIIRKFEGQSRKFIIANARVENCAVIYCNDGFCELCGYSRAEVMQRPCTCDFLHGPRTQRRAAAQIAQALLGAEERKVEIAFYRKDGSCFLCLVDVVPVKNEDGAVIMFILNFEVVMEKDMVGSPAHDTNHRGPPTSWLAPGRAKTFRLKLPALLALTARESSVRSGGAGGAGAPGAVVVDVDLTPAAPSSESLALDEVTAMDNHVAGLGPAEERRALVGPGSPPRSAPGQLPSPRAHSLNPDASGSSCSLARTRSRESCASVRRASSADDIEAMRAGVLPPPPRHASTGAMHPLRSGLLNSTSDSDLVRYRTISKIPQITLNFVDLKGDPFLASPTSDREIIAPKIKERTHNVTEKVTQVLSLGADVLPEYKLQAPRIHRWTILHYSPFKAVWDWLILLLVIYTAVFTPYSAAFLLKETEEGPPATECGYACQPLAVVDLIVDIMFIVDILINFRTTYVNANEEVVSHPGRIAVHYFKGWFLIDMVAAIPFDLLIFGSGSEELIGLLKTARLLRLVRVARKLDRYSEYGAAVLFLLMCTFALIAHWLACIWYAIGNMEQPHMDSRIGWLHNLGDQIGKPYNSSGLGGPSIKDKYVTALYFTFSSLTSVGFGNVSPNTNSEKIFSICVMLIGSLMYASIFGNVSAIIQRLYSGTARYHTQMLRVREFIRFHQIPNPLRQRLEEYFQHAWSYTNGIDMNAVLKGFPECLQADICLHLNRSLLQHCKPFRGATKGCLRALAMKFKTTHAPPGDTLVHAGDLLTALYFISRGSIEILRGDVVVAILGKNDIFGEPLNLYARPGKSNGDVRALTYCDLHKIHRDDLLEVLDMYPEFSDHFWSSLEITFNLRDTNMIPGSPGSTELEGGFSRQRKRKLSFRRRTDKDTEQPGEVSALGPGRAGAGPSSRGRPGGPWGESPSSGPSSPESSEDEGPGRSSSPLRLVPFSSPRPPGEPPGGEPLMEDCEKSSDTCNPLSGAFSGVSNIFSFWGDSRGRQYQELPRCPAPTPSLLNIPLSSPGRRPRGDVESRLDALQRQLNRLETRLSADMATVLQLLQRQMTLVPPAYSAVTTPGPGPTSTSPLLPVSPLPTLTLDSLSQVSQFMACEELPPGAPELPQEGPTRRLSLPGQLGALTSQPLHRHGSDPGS
row,Structure (SMILES),"hERG current change (%, negative = inhibition) at 1uM [%]"
1,COc1ccc(Nc2nnc(-c3ccc(C)cc3)c3ccccc23)cc1C(=O)N1CCCCC1,4.22
2,Cc1cc(C)c(S(=O)(=O)Cc2ccc(Cl)cc2)c(=O)[nH]1,9.42
3,O=[N+]([O-])c1cccc(-c2ccc(/C=N/n3c(-c4ccccc4)n[nH]c3=S)o2)c1,7.65
4,O=C(CN1CCN(c2ccccn2)CC1)Nc1ccccc1Br,1.89
5,Cc1cc(C)c2nc(C(F)(F)F)nc(NCCCN3CCOCC3)c2c1,9.96
6,O=C(CN1CCN(c2cccc(C(F)(F)F)c2)CC1)NCc1ccccc1,-2.08
7,CCCC(=O)c1c[nH]c(C(=O)NCc2cccnc2)c1,12.1
8,CC1=NCCc2c1[nH]c1ccccc21,-0.861
9,O=C(O)C1CC(=O)N(Cc2ccc(F)cc2)C1 (stereo not drawn),3.81
10,CCCCn1c(N)c(N(CC(C)C)C(=O)CCCc2nc3ccccc3s2)c(=O)[nH]c1=O,15.3
11,Cc1ccc(S(=O)(=O)NC(C)(C)CN2CCCCC2)cc1,3.13
12,CCN1CCN(c2ccc(S(=O)(=O)N3CCCCC3)cc2NC(=O)c2ccc(OC(F)F)cc2)CC1,-56.4
13,Cc1ccccc1OCC(=O)OCn1nnc2ccccc2c1=O,11.9
14,Cc1ccccc1S(=O)(=O)N(CC(O)CN1C(=O)NC(C)(C)C1=O)c1ccccc1 (stereo not drawn),15.1
15,O=[N+]([O-])c1ccc(Cl)cc1CNc1ccc(F)c(F)c1,16.2
16,N#C/C(=N\Nc1cccc(F)c1)C(=N)N1CCCCCC1,1.26
17,CC(=O)NCC(c1cccs1)S(=O)(=O)c1ccc(F)cc1 (stereo not drawn),15.1
18,COc1ccc(-c2ccc(-c3nnn(CC(=O)N4CCOCC4)n3)cc2)cc1,-2.74
19,COc1ccccc1Nc1nn2c(=O)c3ccc(C(=O)N4CCC(C)CC4)cc3nc2s1,23.4
20,Cc1ccc(C(=O)NCCCNC(=O)c2ccc(C)nc2)cc1,12.8
21,CCCN(C(=O)COC(=O)Cn1c(=O)oc2ccccc21)c1c(N)n(Cc2ccccc2)c(=O)[nH]c1=O,7.44
22,N#Cc1c(-c2cccc(F)c2)cc(-c2ccccc2)nc1Br,13.8

row,Structure (SMILES),"hERG current change (%, negative = inhibition) at 1uM [%]"
1,Cc1noc2ncnc(Oc3cc(Cl)ccc3Cl)c12,12.8
2,O=C(O)C(=O)O.O=S(=O)(c1ccc(Cl)cc1)N(CCCN1CCOCC1)Cc1cccs1,-10.2
3,COC(=O)c1ccccc1NC(=O)CCC(=O)N1CC(C)Oc2ccc(C)cc21 (stereo not drawn),10
4,CCOc1ccccc1NC(=O)CCn1cccc1,14.1
5,COc1cccc(-c2cc(C(=O)Nc3ccn(Cc4ccc(C)cc4)n3)no2)c1,7.67
6,Cc1coc2c(C)c3oc(=O)c(CCC(=O)NCCC(=O)O)c(C)c3cc12,13.5
7,CCOC(=O)C(NC(=O)C(Cc1ccc(N(CCCl)CCCl)cc1)NC(C)=O)C(C)C (stereo not drawn),7.62
8,COc1ccc(N2CCN(C(=O)CCNS(=O)(=O)c3ccc(C)cc3)CC2)cc1,-2.06
9,COc1cccc(NC(=O)COC(=O)c2c(-c3ccccc3)noc2C)c1,11.2
10,Cc1noc(C)c1COc1ccc(C(=O)OCC(N)=O)cc1,12.3
11,COc1ccc(NC(=O)CC(C(=O)O)N2CCCCC2)cc1 (stereo not drawn),0.647
12,CC1CC(C)CN(C(=O)c2nn(C)c3c2CSc2ccccc2-3)C1 (stereo not drawn),12.5
13,Cc1ncc([N+](=O)[O-])n1CCOC(=O)NC(Nc1ccc(F)cc1)C(Cl)(Cl)Cl (stereo not drawn),-29.3
14,COc1ccc(N2C(=O)CSC2c2ccccc2[N+](=O)[O-])cc1 (stereo not drawn),10.3
15,CC(C)(C)OC(=O)c1c(N)n(Cc2ccco2)c2nc3ccccc3nc12,4.64
16,O=[N+]([O-])c1ccc(C(O)CN=Cc2ccc(O)cc2O)cc1 (stereo not drawn),13.8
17,Cc1ccc(S(=O)(=O)CCC(=O)Nc2ccc3nc(C)sc3c2)cc1,-2.6
18,COc1ccc2nc(C)cc(Nc3ccc(N4CCOCC4)cc3)c2c1.Cl,-25.1
19,O=c1c2ccccc2nc2sc(Nc3cccc(Cl)c3)nn12,3.99
20,COc1ccc(CN2C(=O)c3ccccc3C2=O)cc1C(=O)N(C)CC(=O)Nc1ccc(F)cc1,10.4
21,O=C(NCCCn1ccnc1)C(=O)NCC1OCCN1S(=O)(=O)c1ccccc1 (stereo not drawn),12.2
22,O=C1N(c2ccccc2)C[C@@H]2C[C@@H](c3cccs3)N3CCC[C@@]123,6.57

row,Structure (SMILES),"hERG current change (%, negative = inhibition) at 1uM [%]"
1,COc1ccccc1C(c1c(O)nc(SC)[nH]c1=O)c1c(O)nc(SC)[nH]c1=O,16.2
2,Oc1ccc(Br)cc1-c1ccn[nH]1,5.4
3,C=CCn1c(SCC(=O)NNC(=O)Nc2ccc(C)cc2)nnc1-c1ccccc1,1.92
4,O=C(NC1CCS(=O)(=O)C1)c1ccc(N2CCCCC2)c([N+](=O)[O-])c1 (stereo not drawn),11.9
5,Cc1cc(=O)oc(C)c1C(=O)Nc1cccnc1Cl,12.8
6,CC(C)CCN1CC(C(=O)NCc2ccc(F)cc2)CC1=O (stereo not drawn),3.61
7,O=C(O)c1ccc(CSc2nnc(-c3ccccc3Cl)n2-c2ccccc2)cc1,11.2
8,COc1ccc(NC(=O)CCn2cccc2)cc1,-0.263
9,CCCCn1c(N)c(N(CCOC)C(=O)c2cc(-c3ccc(C)cc3)nc3ccccc23)c(=O)[nH]c1=O,2.24
10,O=C(OCc1nc2ccccc2s1)C1CCN(C2=NS(=O)(=O)c3ccccc32)CC1,-7.74
11,CCN1CCN(S(=O)(=O)c2cc(OC)c(Cl)cc2OC)CC1,9.91
12,O=C(NC1CC(=O)N(c2ccccc2)C1)C(=O)c1c[nH]c2ccccc12 (stereo not drawn),-1.49
13,S=C(Nc1ccc(Nc2ccccc2)cc1)N1CCN(c2ncccn2)CC1,13.7
14,COc1ccc(/C=C(/NC(=O)c2cccc([N+](=O)[O-])c2)C(=O)O)cc1OC,13.6
15,Cc1ccc(C(=O)N/C(=C/c2ccco2)C(=O)OCN2C(=O)c3ccccc3C2=O)cc1,-12
16,CC(=O)N1C=CN(C(C)=O)C(c2cn(C)c3ccccc23)C1c1cn(C)c2ccccc12 (stereo not drawn),-3.46
17,Cc1ccc(S(=O)(=O)N2CCCC2CNC(=O)c2ccccc2)cc1 (stereo not drawn),8.07
18,C=C(C)C(=O)Oc1ccc(N2C(=O)CCC2=O)cc1,6.83
19,COc1ccc(S(=O)(=O)N/N=c2\oc3c(OC)cccc3cc2S(=O)(=O)c2ccc(C)cc2)cc1OC,12.9
20,CSc1ccccc1-c1nnc(-c2ccc(Cl)cc2)o1,6.44
21,COc1ccc(/C=N/Nc2ncnc3c2[nH]c2ccccc23)c(OC)c1OC,0.362
22,CCOC(=O)c1[nH]c(C)c(/C(O)=C2\C(=O)C(=O)N(CCN(C)C)C2c2cccc(OC)c2OC)c1C (stereo not drawn),9.23

row,Structure (SMILES),"hERG current change (%, negative = inhibition) at 1uM [%]"
1,O=C(O)c1ccc(Cl)c(S(=O)(=O)NCc2cccnc2)c1,4.34
2,CS(=O)(=O)Nc1ccccc1C(=O)OCC(=O)N1CCC(c2ccccc2)=N1,-9.49
3,COCCN(CC(=O)NC1CCCCC1)C(=O)CSc1nc2ccccc2o1,9.08
4,COc1cccc(N2CCN(CC(=O)NC(=O)NCc3ccco3)CC2)c1,15.8
5,CCCc1c(C)nc2ccc(OC)cc2c1SCCC(=O)O,8.26
6,CCn1c(SCC(=O)Nc2cccc(NC(C)=O)c2)nnc1-c1ccco1,15.3
7,Cc1cc(C)n(CCC(=O)N/N=C/c2ccc(O)cc2)n1,14.7
8,COc1ccc(NC(=O)NNC(=O)c2ccc(Cl)cc2Cl)cc1OC,-4.19
9,CCOC(=O)CCNC(=O)CCc1nnc(CCCc2ccccc2)o1,10.6
10,Cc1ccc(C2CC(c3cccs3)=NN2C(=O)CSC2=NN3CCCC(=O)N=C3S2)cc1 (stereo not drawn),5.17
11,Cc1cc(C)cc(NC(=O)Nc2ccc3ccccc3n2)c1,13.5
12,Cc1ccccc1OCC(=O)NNC(=O)Nc1ccc(Cl)cc1,8.16
13,CCOc1ccc(CCNC(=O)c2ccc3c(=O)[nH]c4c(C(=O)NC(C)C)sc(=S)n4c3c2)cc1,0.436
14,Cc1nn(CCCC(=O)Nc2cccnc2)c(C)c1[N+](=O)[O-],13.2
15,CCCCCn1c(N2CCCC2)nc2c1c(=O)n(C)c(=O)n2C,0.57
16,Cc1ccc2c(c1)N(CCCC(=O)NCCCN1CCCCC1)C(=O)CO2,8.19
17,Cc1cc(C)cc(NC(=O)CC2Oc3ccc(C)cc3NC2=O)c1 (stereo not drawn),12.3
18,CC(=O)c1c(C)n(CC(=O)NCc2ccc3c(c2)OCO3)c2ccccc12,5.8
19,CCOC(=O)Cc1nc2ccccc2o1,9.03
20,O=C(O)/C=C/c1cccc(NS(=O)(=O)c2ccccc2)c1,2.64
21,C=CCNc1nc(N)c(C(=C(C#N)C#N)c2ccc(Br)cc2)s1,8.88
